Data published in the antibiotic and cytotoxicity screens of Wong et al. (2023).
The other results are listed elsewhere or left out.

What was measured:
HSkMC = human skeletal muscle cells; assay: cytotoxicity call (relative viability < 0.9); settings: 10 µM
HepG2 = assay: cytotoxicity call (relative viability < 0.9); settings: 10 µM
S. aureus RN4220 = assay: growth inhibition call (relative growth <= 0.2); settings: 50 µM

| Structure (SMILES) | cytotoxicity call (HSkMC) | cytotoxicity call (HepG2) | growth inhibition call (S. aureus RN4220) |
| --- | --- | --- | --- |
| COc1ccc(S(=O)(=O)N(C)C[C@@H]2Oc3ncc(C#CC4(O)CCCC4)cc3C(=O)N([C@@H](C)CO)C[C@H]2C)cc1 | inactive | inactive | inactive |
| CO[C@@H](CN(C)C(=O)C1CCOCC1)[C@H](C)CN(C(=O)Nc1ccc(C(F)(F)F)cc1)[C@@H](C)CO | inactive | inactive | active |
| Cc1cc(C(=O)Nc2cccc3c2O[C@H](CN(C)S(=O)(=O)c2ccc(F)cc2)[C@H](C)CN([C@@H](C)CO)C3=O)n(C)n1 | inactive | inactive | inactive |
| Cc1ccc(S(=O)(=O)Nc2ccc3c(c2)C(=O)N([C@H](C)CO)C[C@H](C)[C@H](CN(C)C(=O)NC2CCCCC2)OCCCC[C@@H](C)O3)cc1 | inactive | inactive | inactive |
| COc1ccccc1NC(=O)N(C)C[C@@H]1Oc2cc(Br)ccc2S(=O)(=O)N([C@@H](C)CO)C[C@@H]1C | inactive | inactive | inactive |
| COc1ccc(S(=O)(=O)Nc2ccc3c(c2)CC(=O)N([C@H](C)CO)C[C@@H](C)[C@@H](CN(C)C)O3)cc1 | inactive | active | inactive |
| CS(=O)(=O)N1CCN(C(=O)NCc2ccccc2)C[C@]2(CNC(=O)C2)C1 | inactive | inactive | inactive |
| O=C(NO)c1ccc(C(=O)N/N=C/[C@H](O)[C@@H](O)[C@H](O)[C@H](O)CO)cc1 | inactive | inactive | inactive |
| COc1ccc(S(=O)(=O)N(C)C[C@@H]2OCCCC[C@H](C)Oc3ccc(NC(=O)CCC(F)(F)F)cc3C(=O)N([C@@H](C)CO)C[C@@H]2C)cc1 | inactive | inactive | inactive |
| C[C@@H]1CCCCO[C@H](CN(C)C(=O)Nc2ccccc2)[C@H](C)CN([C@@H](C)CO)C(=O)c2cc(NS(=O)(=O)c3ccc(Cl)cc3)ccc2O1 | inactive | inactive | inactive |
| O=C(NCCN1CCNCC1)c1ccccn1 | inactive | inactive | inactive |
| CO[C@H]1CN(C)C(=O)c2ccc(NC(=O)C3CC3)cc2OC[C@@H](C)N(C(=O)CN2CCOCC2)C[C@H]1C | inactive | inactive | inactive |
| CS(=O)(=O)N1[C@@H]2c3ccc(-c4ccc(F)cc4)c(=O)n3C[C@@H]2[C@@H](CO)[C@@H]1C(=O)O | inactive | inactive | inactive |
| CC(C)NC(=O)Nc1ccc2c(c1)C(=O)N([C@H](C)CO[Si](C)(C)C(C)(C)C)C[C@@H](C)[C@H](CN(C)S(=O)(=O)c1ccc(Cl)cc1)O2 | inactive | inactive | inactive |
| C[C@@H]1CN([C@H](C)CO)C(=O)c2cccc(NC(=O)c3nc4ccccc4s3)c2O[C@H]1CN(C)Cc1ccc(C(=O)Nc2ccccc2N)cc1 | inactive | inactive | inactive |
| Cc1ccc(S(=O)(=O)N2C[C@H](O)COC[C@H]3O[C@@H](CC(=O)NCc4ccc(Cl)c(Cl)c4)CC[C@@H]32)cc1 | inactive | active | inactive |
| CCOC(=O)Cn1c(=O)c(C(N)=S)cn(C(C)C)c1=O | inactive | inactive | inactive |
| C[C@@H]1CCCCO[C@H](CN(C)S(=O)(=O)c2ccc(F)cc2)[C@H](C)CN([C@@H](C)CO)C(=O)c2cc(NS(=O)(=O)c3cn(C)cn3)ccc2O1 | inactive | inactive | inactive |
| CC(C)NC(=O)N(C)C[C@H]1Oc2ccc(NC(=O)Nc3ccc4c(c3)OCO4)cc2C(=O)N([C@@H](C)CO)C[C@@H]1C | inactive | inactive | inactive |
| C[C@H]1CN([C@@H](C)CO)C(=O)c2cc(NC(=O)NC3CCCCC3)ccc2O[C@@H]1CN(C)Cc1ccc(Cl)c(Cl)c1 | inactive | inactive | inactive |
| Cc1noc(C)c1S(=O)(=O)N(C)C[C@H]1Oc2ccc(NC(=O)CCCN(C)C)cc2C(=O)N([C@H](C)CO)C[C@H]1C | inactive | inactive | inactive |
| C[C@H]1CN([C@@H](C)CO)C(=O)c2cc(-c3cccnc3)cnc2O[C@H]1CN(C)Cc1ccc(Oc2ccccc2)cc1 | inactive | inactive | inactive |
| COC(=O)[C@H]1N=C(c2ccc(OCCCOC(=O)NCCCCCC(=O)NO)cc2)O[C@H]1c1ccccc1 | inactive | inactive | inactive |
| C[C@H]1CN([C@@H](C)CO)C(=O)c2c(c3ccccc3n2C)-c2ccccc2CO[C@@H]1CN(C)S(=O)(=O)c1cn(C)cn1 | inactive | inactive | inactive |
| Cc1ccc(S(=O)(=O)Nc2cccc3c2O[C@H](CN(C)C(=O)Nc2cccc4ccccc24)[C@H](C)CN([C@H](C)CO)C3=O)cc1 | inactive | inactive | inactive |
